Experimental data as given in the supplement of paper PMC11417369.
The other results are listed elsewhere or left out.

The sequences below were run on PfSIP2 AP2 domain 1 (GST-tagged) (assay: gcPBM binding intensity (ln(normalized median fluorescence intensity)); higher = stronger DNA binding).
Procedure, shortened: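 GST-tagged P. falciparum DNA-binding domains produced in E. coli were incubated for 1 h on an Agilent 4 × 180k array of primer-extended double-stranded 36-bp intergenic genomic probes with negative controls. Binding intensity is the highest Masliner-normalised natural-log median intensity across replicate spots of either probe orientation, with bound protein detected by Alexa488 anti-GST antibody at 488 nm.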

First: CACTTTTCATATATGACACACAAAAAATTAATAAAA [CACACA_site3639]
Second: GCATGTATAATGGTAGTGCATATAATAATATAATAA [GTGCAC_site9548]
The “gcPBM binding intensity (ln)” value of the first is lower: 7.32 for the first, 9.06 for the second.

Compared with “ATATTGTAAGTAAAATGTAATAAATATAATAAAATA [CACACA_negctrl_site697]”, “TTAGTATATACATTTGCACACATTATTTTTTAACAT [CACACA_site2618]” is higher in “gcPBM binding intensity (ln)” value: 7.03 for the first, 7.2 for the second.

Going from “AAAAGGAAAATACTAGCACACAATATATAATAAACA [CACACA_site285]” to “TCCTTGCATTTTAAAACACACAAAAATTAATTGTTA [CACACA_site7152]”, the “gcPBM binding intensity (ln)” value rises from 6.98 to 7.54.

First: TTTCTAATTATTTCCCTTCAAATATATTAATATCGT [CACACA_negctrl_site429]
Second: TAAAAATGTGGACACACACACATATATATATTTAAT [CACACA_site4941]
The “gcPBM binding intensity (ln)” value of the first is lower: 7.02 for the first, 7.08 for the second.

Going from “ATATATATTATTATATGTACATATAAATATATTAAT [XGTACX_site5270]” to “TTCATATATTATTATGCATGTTCATAAATTATCTAA [TGCATGCA_site896]”, the “gcPBM binding intensity (ln)” value falls from 7.1 to 6.99.

Going from “TTCATATAATTATATACATGCATAAATTCTAAGTAA [TGCATGCA_site622]” to “ATTTTATAAACAAATGAACACACAAACATATATATA [CACACA_site9036]”, the “gcPBM binding intensity (ln)” value rises from 6.91 to 7.15.

Compared with “TACATACATAAACACACACACACATATATATATATA [CACACA_site8953]”, “ATCAAAAGAAAACACACACACATACATATATATATA [CACACA_site3795]” is lower in “gcPBM binding intensity (ln)” value: 9.26 for the first, 9.07 for the second.

Compared with “ATTTGTGTATATTAGAGTACATAAAATTAGAGGAAC [XGTACX_site1654]”, “CATTAATGACATGATTGTACATAAGCTTTTTTACAT [XGTACX_site1888]” is lower in “gcPBM binding intensity (ln)” value: 7.61 for the first, 6.88 for the second.

Compared with “ACCCATTCAAATTTCGCACACACATACAAAAAAAAA [CACACA_site3094]”, “TATTTAAAAATAAAATGTACATATTATTATGCATTA [XGTACX_site1303]” is lower in “gcPBM binding intensity (ln)” value: 7.9 for the first, 7.06 for the second.

First: TGATTCTAACTTATGGTGCAACATTATGGACACCGT
Second: TTACATATTTATGATTGTACACATTTATAAACAATA [XGTACX_site2190]
The “gcPBM binding intensity (ln)” value of the first is higher: 10.7 for the first, 6.99 for the second.

Going from “TTAATATTGTTATAGCGTACAAATAAACATATTAAA [XGTACX_site8153]” to “AATGTTAAGGAGGGGAGTACATAAAATTCTCTCTCC [XGTACX_site1990]”, the “gcPBM binding intensity (ln)” value falls from 7.05 to 7.

Going from “AAAAGCTATAAAAATCGGTAATTTATAACAGGAATT [CACACA_negctrl_site469]” to “ATTATGTACTATTATACACACGTTTAATTGTAAATT [CACACA_site4278]”, the “gcPBM binding intensity (ln)” value rises from 6.79 to 7.12.

Going from “ATAATAATAAAGTGAACACACACATATAATATATAT [CACACA_site9378]” to “ATTATACACGCGCGCACACACAACAAAAAAAAAAAA [CACACA_site7630]”, the “gcPBM binding intensity (ln)” value rises from 7.19 to 7.59.

First: TAAATAAACAAATTAACACACAGAATTTTTTTTTTC [CACACA_site1674]
Second: ATATTAAGAATGTATACATGCATATATATATAGTAC [TGCATGCA_site219]
The “gcPBM binding intensity (ln)” value of the first is lower: 6.64 for the first, 7.25 for the second.

Compared with “ATTTTAATAAACACTTACATGTTTTCCAAATTGTAT [CACACA_negctrl_site1807]”, “TTCGTTAAAAATAAATGTACATAAATAAACCTTATT [XGTACX_site621]” is higher in “gcPBM binding intensity (ln)” value: 6.93 for the first, 7.33 for the second.

Going from “TATTAATAAATATGTTTACACACGAAAATACATTTT [CACACA_site1012]” to “AAAGATTTAGAAAATGAACACACGAGCACCCACCGA [CACACA_site1017]”, the “gcPBM binding intensity (ln)” value rises from 6.82 to 9.57.

First: GAAAGAGAGATATATACACACATATTTATATTTTTA [CACACA_site7057]
Second: AAAAGTCTCTTTTTAGTGCACATTTTATTTAAATAT
The “gcPBM binding intensity (ln)” value of the first is lower: 6.76 for the first, 10.2 for the second.

First: CAGATAAGGTGAAGCTGTACAAAAATGTTTTATAAC [XGTACX_site6783]
Second: TCTAATTATCACATTGCACACACATTTCCTTTTACA [CACACA_site9140]
The “gcPBM binding intensity (ln)” value of the first is lower: 7.18 for the first, 7.3 for the second.

Going from “TAATTAATTTATGTAACACACATTGTTGATTCAATA [CACACA_site1098]” to “TTATACTGTATAGTCGCACACAAAAATATAAAATAT [CACACA_site3869]”, the “gcPBM binding intensity (ln)” value rises from 6.93 to 7.11.

Going from “AATACACCCAGACACACACACAAAAAAAAAAAAAAA [CACACA_site513]” to “ATATATATATTAAATACACACATTTTTGATTAGGTT [CACACA_site3119]”, the “gcPBM binding intensity (ln)” value rises from 7.29 to 8.9.

Going from “AAAAGAGAAATGGGCACACACACACCGATTATATAT [CACACA_site4942]” to “TTTGAATCCTTATATACACACATTATGTAATATTAT [CACACA_site561]”, the “gcPBM binding intensity (ln)” value falls from 7.13 to 7.1.

First: AATATAAAAATGTTTACACACACACCCAAATATATT [CACACA_site2511]
Second: AGAATTACTTAAAAAAGTACATAAAATTATTTAAAA [XGTACX_site2205]
The “gcPBM binding intensity (ln)” value of the first is higher: 7.13 for the first, 6.69 for the second.

Going from “ATTACATTTTTAATGCGTACTAAAAATGTATATAAG [XGTACX_site6384]” to “TTATTATCTCTTGTCATTATTATATACTAAGAAGTA [CACACA_negctrl_site410]”, the “gcPBM binding intensity (ln)” value falls from 7.11 to 6.88.

Going from “AATATGAAATATATTACACACATTTATATGTTGAAA [CACACA_site1427]” to “TTTATTCCAGTATTCACACACGAATAACCACATAAC [CACACA_site5104]”, the “gcPBM binding intensity (ln)” value rises from 6.87 to 7.12.

Going from “ATAATTCTTTATTATAGTACACAAACTTTCAAAACA [XGTACX_site3597]” to “CTATACATATTATATAGTACTTTATTATTATGACTA [XGTACX_site1382]”, the “gcPBM binding intensity (ln)” value falls from 7.06 to 6.74.

First: TATATAAGAGGAAAAAGTACAGAAAAACAAAGAGAA [XGTACX_site2926]
Second: TGTATTTATAGCAATACACACATAACAATAAATATA [CACACA_site3328]
The “gcPBM binding intensity (ln)” value of the first is higher: 7.54 for the first, 6.98 for the second.

First: ACAAAACATATATTCTGTACATATATAATGGTGACT [XGTACX_site6796]
Second: TTTATATCTTATTATAGGAAAATGAATATTTTCTCT [TGCATGCA_negctrl_site478]
The “gcPBM binding intensity (ln)” value of the first is higher: 7.1 for the first, 6.64 for the second.

Compared with “AAGAAAATATAAATATGTACTTAATAATTTATTTAT [XGTACX_site8100]”, “AAAAAAGAGGGATACACACAAACATATATATATATA [CACACA_site2243]” is higher in “gcPBM binding intensity (ln)” value: 6.78 for the first, 9.24 for the second.

Compared with “AAAATAAAAAGAAATTGTACGTATAATAATATATTT [XGTACX_site7593]”, “TTTATTTTAAAATTTACACACAAAAGGATTTATAGA [CACACA_site2338]” is higher in “gcPBM binding intensity (ln)” value: 6.97 for the first, 7.01 for the second.

Compared with “TATATTAATTAACAGTGTACAAAAAAAAATAAAAAA [XGTACX_site3702]”, “TATTAAAATAACATACGTACATAAGTATATAAAAAA [XGTACX_site1769]” is lower in “gcPBM binding intensity (ln)” value: 7 for the first, 6.99 for the second.

Compared with “AGGATACACGGACACACACACATATATATATATATA [CACACA_site4654]”, “TGTATAAATAAATGCGTACACACTAATAAAAAAAAA [CACACA_site858]” is lower in “gcPBM binding intensity (ln)” value: 9.57 for the first, 7.33 for the second.

First: TTATGTAAATAATTTTGTACTTAAATTATTATATAA [XGTACX_site1491]
Second: CAACTTTTTGAAAATTGTACATGACATATATATATA [XGTACX_site260]
The “gcPBM binding intensity (ln)” value of the first is lower: 6.72 for the first, 9.04 for the second.

First: AAAAAAAATATGATGAGTACACAATAATACATGCAA [XGTACX_site6999]
Second: GTGGTTATATATTAAGTGCATATTATAATTTTAAAC
The “gcPBM binding intensity (ln)” value of the first is lower: 7.17 for the first, 8.63 for the second.

Going from “AATATCTAAAATGTGTGTACATAATATTTTTAATAT [XGTACX_site3831]” to “ATAGATAAAAAATTATTTATTTAGAATTTTTATGTA [CACACA_negctrl_site400]”, the “gcPBM binding intensity (ln)” value falls from 7.1 to 6.77.

Going from “TGTCTTTATATATATTTATTTTTTAGTATTACATAA [CACACA_negctrl_site21]” to “ATGGAATATTTCATGATTTTTTTAATTTTTTTATTG [XGTACX_negctrl_site55]”, the “gcPBM binding intensity (ln)” value falls from 7.33 to 6.6.

Compared with “ATTTTCATATTTTTATGTACATATTATAAGAATATA [XGTACX_site3691]”, “TATCTTTTTTTTAATACACACAAATTTATGAAAGTA [CACACA_site7879]” is higher in “gcPBM binding intensity (ln)” value: 6.97 for the first, 6.99 for the second.

Compared with “CACGCACGCACATACACACACATACACATATAAATA [CACACA_site6907]”, “ATGTTGTTCATAAATATATTATTTTTAAATGTACAA [GTGCAC_negctrl_site507]” is lower in “gcPBM binding intensity (ln)” value: 7.69 for the first, 6.94 for the second.

First: GTATTTAGATGATTAACACACATATGTGTATTAATA [CACACA_site6733]
Second: ATATATATTATTGAATGTACATAATTATTTAATAGT [XGTACX_site4971]
The “gcPBM binding intensity (ln)” value of the first is lower: 7.11 for the first, 7.3 for the second.

First: ATATATTCACGTTAATGTACACATAATAAATTATAT [XGTACX_site5481]
Second: AATTATATTGGTTGTAGTACTAAAAGTAAGTTAATG [XGTACX_site33]
The “gcPBM binding intensity (ln)” value of the first is higher: 7.3 for the first, 7.26 for the second.

Compared with “TATTCACTGATATGTTGTACATAAAAAAAATTAAAT [XGTACX_site6128]”, “TGAAAAAAGAAAAATACACACATATAATATAATATA [CACACA_site2255]” is lower in “gcPBM binding intensity (ln)” value: 7.49 for the first, 6.74 for the second.

Going from “TTTTTTATATTGATATTTATTAAATATGAAATGTTA [GTGCAC_negctrl_site405]” to “AATAAAATATAAGGGGGTACGGAGAAAGGATACTAT [XGTACX_site7733]”, the “gcPBM binding intensity (ln)” value rises from 7.03 to 7.2.

First: TTATATAAGATATTTCGTACACATTCAAAAATTATG [XGTACX_site7375]
Second: AAAAAAAAAAAAAAAAGTACATATATTATATATATA [XGTACX_site2983]
The “gcPBM binding intensity (ln)” value of the first is lower: 6.96 for the first, 8.21 for the second.

Going from “CATACACCCCAACACACACACACACCCATATATAAT [CACACA_site8097]” to “TTATATTTTTACAAGAGTACATATATATATATATAT [XGTACX_site5383]”, the “gcPBM binding intensity (ln)” value rises from 7.33 to 9.27.

Going from “GTGCAATATTTATTTTGTACATATTTATCAATAAAC [XGTACX_site8297]” to “ACATCGATTTATATTCTGCACTGAAGAAACTACAAC [GTGCAC_site9967]”, the “gcPBM binding intensity (ln)” value falls from 8.9 to 7.76.

“ATTAAATATATTAAATGTACATAATATATATATATA [XGTACX_site5032]” was tested, and the “gcPBM binding intensity (ln)” value was 8.57.
